Data taken from the supplement of paper PMC12217912.
The list shows a part of the results. The full chains were built here from the parent and the listed change. Inactive controls read about 0.05.

B1: TEV protease; numbered along this chain (parent)
chain: MGESLFKGPRDYNPISSSICHLTNESDGHTTSLYGIGFGPFIITNKHLFRRNNGTLVVQSLHGVFKVKDTTTLQQHLVDGRDMIIIRMPKDFPPFPQKLKFREPQREERICLVTTNFQTKSMSSMVSDTSCTFPSGDGIFWKHWIQTKDGQCGSPLVSTRDGFIVGIHSASNFTNTNNYFTSVPKNFMELLTNQEAQQWVSGWRLNADSVLWGGHKVFMVKPEEPFQPVKEATQL

Variants of: B1
Assay: raw area under fraction-flipped curve 0-4 h after induction (AUC4h, not background-subtracted), DNA-recorder readout of cleavage of the substrate (dimensionless); higher = more cleavage of the substrate by the protease variant
Conditions: temperature: 34 °C; time window: 0-4 h after rhamnose induction
Experimental: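 In vivo DNA recorder in E. coli TOP10(DE3) ΔrhaA at 34 °C. Each TEVp single-site mutant (parent TEVp 0) is paired with a single-site variant of the 7-mer TEVs (canonical ENLYFQ|S). The substrate sits between flexible linkers in a Bxb1-sfGFP-TEVs-SsrA fusion, so cleavage stabilises Bxb1 and speeds flipping of a recombination array, read by NGS. The value is the raw area under the fraction-flipped curve over 0-4 h after rhamnose induction (AUC4h), with ≥20 reads per time point. It is not background-subtracted; inactive controls average about 0.047.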
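Further: Bxb1 expression induced with 0.2% (w/v) L-rhamnose at OD600 near 0.5, cultures sampled hourly, flipped fraction per protease–substrate barcode pair counted by paired-end Illumina sequencing.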

Variant	area with substrate EALYFQS	area with substrate ECLYFQS	area with substrate EDLYFQS	area with substrate EELYFQS	area with substrate EFLYFQS	area with substrate EGLYFQS	area with substrate EHLYFQS	area with substrate EILYFQS	area with substrate ELLYFQS	area with substrate EMLYFQS	area with substrate EQLYFQS	area with substrate ERLYFQS	area with substrate ESLYFQS	area with substrate ETLYFQS	area with substrate EVLYFQS	area with substrate EWLYFQS	area with substrate EYLYFQS	area with substrate EKLYFQS	area with substrate EPLYFQS
I42P	0.0506	0.0493	0.0441	0.0419	0.0445	0.0617	0.0421	0.0517	0.0526	0.038	0.0418	0.0394	0.0367	0.0691	0.05	0.0448	0.0509		
I42T	0.0634	0.0568	0.0744				0.075	0.0523		0.0622	0.0769		0.0621					0.0607	0.0625
I43M	0.0984	0.0827	0.0876	0.0883		0.074	0.0929	0.0786	0.0925	0.0793	0.0925	0.0644		0.138	0.0893			0.0785	0.0924
T44V	0.0948	0.0793	0.107	0.0473				0.0697	0.0691	0.074	0.078		0.0834		0.0675		0.0612	0.0735	0.0625
K46D	0.0452	0.0517	0.0597	0.0558	0.0676				0.0394	0.0506		0.0806	0.0558	0.0623	0.0599	0.042		0.0491	0.0542
F49E	0.0633	0.0581	0.0619	0.0462	0.0881	0.0482	0.0655	0.0556	0.0482	0.0592		0.0338	0.0626		0.0432	0.0543	0.0648	0.0568	0.0381
R50Q	0.132	0.0869	0.129	0.147			0.13	0.0991				0.154	0.0959	0.137	0.114	0.135		0.101	
R50V	0.184	0.148	0.143				0.217	0.124	0.127	0.176	0.162	0.136			0.121	0.131			0.159
N53E	0.0909	0.0779	0.0265	0.116		0.0805	0.119	0.0995	0.0736	0.13	0.148	0.105	0.11		0.105	0.0873	0.107		0.141
G54D	0.102	0.0693	0.109	0.0907		0.0722	0.0806	0.0527	0.0859		0.0592	0.0796	0.0801	0.155	0.0694		0.0739	0.0745	
T55H	0.12	0.12	0.14	0.107	0.105			0.105		0.121	0.0897	0.095	0.104	0.0898		0.0938	0.106	0.0738	
T55K	0.117	0.0944	0.12	0.184	0.105	0.107	0.147	0.0941		0.107	0.122	0.097	0.109		0.0725	0.0932	0.102	0.0987	0.14
V57A	0.0923	0.105	0.157		0.1	0.0928	0.134	0.0907	0.102		0.0872	0.102	0.109	0.0776		0.117		0.122	
V57C	0.113	0.0892	0.123	0.125	0.103	0.0655	0.105	0.0728		0.129	0.127	0.11	0.101	0.11	0.0774	0.11			
V57D	0.108	0.125						0.107			0.125		0.117	0.112			0.137	0.105	
S60A	0.124	0.0913	0.0715			0.0842		0.0502	0.0855		0.112	0.12	0.102	0.0977	0.085				0.154
L61S	0.106	0.102	0.146			0.1			0.0953				0.0943			0.0793			
G63V	0.104	0.0841	0.112	0.109			0.0924	0.0782	0.123	0.0861	0.102		0.0884	0.0935	0.0698	0.0789		0.0695	0.1
F65Y	0.156	0.116	0.135					0.0941	0.121	0.143	0.113		0.105		0.109	0.11			0.142
K66C	0.125	0.105			0.0749		0.13		0.0887	0.126	0.153	0.0993	0.118		0.107	0.104	0.129		
V67Q	0.0842	0.0742	0.0932				0.0883	0.0694	0.0871		0.0943	0.0703	0.0823		0.0747	0.0755			0.0839
K68M	0.151	0.118	0.124				0.11		0.108	0.105	0.121	0.0858			0.0919			0.122	0.103
K68N	0.111	0.12		0.146			0.145	0.0813	0.0754	0.135		0.111	0.0914		0.128	0.111		0.0872	0.128
D69M	0.114	0.079		0.0931	0.118	0.1		0.0843	0.0446	0.0842		0.0958	0.0775	0.134	0.0627		0.0698	0.0948	0.0688
T70M	0.0574	0.116	0.109	0.0985					0.0643				0.0807		0.0849		0.122		
T72Y	0.0946	0.0829	0.102	0.102			0.104	0.0796	0.0818	0.0929	0.105		0.0858		0.106		0.106		
